# Reference: paper PMC4336329 (PLoS ONE, 2015)
# Hit rate of the full screen: of about 310,000 compounds, about 14,000 (4.5%) showed an effect of 50% or more. Effects have a minus sign here. The list shows a part of the results.
# Target: human ether-à-go-go-related gene (hERG) potassium channel (human, UniProt Q12809)
# Assay: primary screen, population patch clamp on CHO cells stably expressing hERG
# 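Also: peak tail current of the secondary pulse compared with the same well before compound.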
# Sequence of human ether-à-go-go-related gene (hERG) potassium channel (Q12809 whole entry, looked up): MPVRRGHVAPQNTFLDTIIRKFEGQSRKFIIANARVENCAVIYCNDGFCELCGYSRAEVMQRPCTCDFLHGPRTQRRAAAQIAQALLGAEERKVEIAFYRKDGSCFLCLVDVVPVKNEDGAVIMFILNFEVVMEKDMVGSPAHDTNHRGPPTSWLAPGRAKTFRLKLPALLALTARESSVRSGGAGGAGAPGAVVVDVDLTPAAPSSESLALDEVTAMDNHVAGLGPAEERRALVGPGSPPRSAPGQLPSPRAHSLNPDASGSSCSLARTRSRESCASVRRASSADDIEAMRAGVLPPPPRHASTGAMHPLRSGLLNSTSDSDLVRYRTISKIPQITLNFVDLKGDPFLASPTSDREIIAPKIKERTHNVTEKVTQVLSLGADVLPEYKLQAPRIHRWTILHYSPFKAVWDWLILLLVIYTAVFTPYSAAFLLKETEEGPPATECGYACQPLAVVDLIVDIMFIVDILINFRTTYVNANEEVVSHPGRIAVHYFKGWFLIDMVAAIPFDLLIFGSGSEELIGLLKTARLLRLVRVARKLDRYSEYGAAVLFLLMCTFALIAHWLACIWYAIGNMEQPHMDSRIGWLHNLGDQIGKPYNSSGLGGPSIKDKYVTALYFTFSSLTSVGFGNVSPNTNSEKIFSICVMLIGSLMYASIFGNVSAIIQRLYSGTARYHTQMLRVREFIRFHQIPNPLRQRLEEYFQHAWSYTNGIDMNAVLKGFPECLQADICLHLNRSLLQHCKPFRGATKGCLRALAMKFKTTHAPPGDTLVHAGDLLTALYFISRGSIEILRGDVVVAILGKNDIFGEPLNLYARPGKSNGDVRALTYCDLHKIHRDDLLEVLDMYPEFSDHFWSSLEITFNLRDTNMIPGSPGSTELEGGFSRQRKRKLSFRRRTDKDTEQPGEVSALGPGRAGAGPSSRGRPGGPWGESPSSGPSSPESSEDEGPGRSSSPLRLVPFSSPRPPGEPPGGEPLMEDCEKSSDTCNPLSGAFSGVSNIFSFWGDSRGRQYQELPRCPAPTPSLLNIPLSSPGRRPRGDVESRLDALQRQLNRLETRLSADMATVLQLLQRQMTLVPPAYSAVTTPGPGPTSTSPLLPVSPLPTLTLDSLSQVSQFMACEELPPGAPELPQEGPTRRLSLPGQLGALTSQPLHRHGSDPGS
row,SMILES,"hERG current change (%, negative = inhibition) at 10uM"
1,COc1cccc(CN(C)S(=O)(=O)c2cccs2)c1,-6.47%
2,Cc1cc(C)c(S(=O)(=O)Nc2ccccc2C(=O)N2CCOCC2)c(C)c1,-22%
3,Cn1c(SCc2ccc(C#N)cc2)nnc1-c1ccccc1,-29%
4,CN(C)C(=O)COC(=O)c1ccc(S(=O)(=O)NCc2ccco2)cc1,19.6%
5,O=C1NCCCC1C(=O)N/N=C/c1cccc([N+](=O)[O-])c1 (stereo not shown),-0.521%
6,O=C(O)CC(SCC(=O)Nc1ccc(Br)cc1)C(=O)O (stereo not shown),28.8%
7,CCC(C)NCC(=O)Nc1cc(S(=O)(=O)N(CC)c2ccccc2)ccc1Cl (stereo not shown),-78.8%
8,CC(OC(=O)CCc1nc2ccccc2c(=O)[nH]1)C(=O)Nc1ncc(Cl)cc1Cl (stereo not shown),14.2%
9,CCc1nnc2n1N=C(c1ccc(Cl)cc1Cl)CS2,-10.6%
10,O=C(O)c1cc([N+](=O)[O-])ccc1NCc1ccccc1,15.6%
11,O=C(NC(=S)Nc1ccc(Cc2ccncc2)cc1)c1ccccc1F,-3.24%
12,Cc1ccc(-c2nc(CSc3nc4ccccc4c(=O)n3CCO)cs2)cc1,5.39%
13,CC12CN3CC(C)(CN(C1)P3(=O)Oc1ccccc1)C2=O (stereo not shown),8.3%
14,CC(C)c1onc(C(=O)N2CCCCC2C)c1[N+](=O)[O-] (stereo not shown),12.7%
15,Cc1ccoc1C(=O)Nc1cccc(Oc2ccccc2)c1,5.12%
16,O=C(COC(=O)Cc1ccccc1F)Nc1ccccc1[N+](=O)[O-],-9.66%
17,CCn1c(SCC(=O)Nc2ccc3c(c2)OCO3)nc2c1c(=O)n(C)c(=O)n2C,-0.539%
18,O=C(O)C1CCCN(S(=O)(=O)c2ccc(-c3ccc(=O)[nH]n3)s2)C1 (stereo not shown),16.5%
19,COc1ccc(CNC(=O)CCSc2nc(-c3ccc4c(c3)OCO4)cc(C(F)(F)F)n2)cc1,-4.91%
20,CN(CCc1ccccn1)C(=O)CC1C(=O)NCCN1Cc1cccc(F)c1 (stereo not shown),9.31%
21,O=C(NCc1ccccc1)C(c1ccco1)N(C(=O)c1ccccn1)c1ccc(F)cc1 (stereo not shown),2.64%
22,CCOC(=O)n1c(=O)n(Cc2ccc(Cl)c(Cl)c2)c2ccccc21,2.5%
23,COc1ccc(N(CC(=O)N/N=C/c2cccnc2)S(=O)(=O)c2ccccc2)c(OC)c1,-40.6%
24,CCN(CC)c1ccc2cc(/C(N)=N/NC(=O)c3cccs3)c(=O)oc2c1,-3.48%
25,Cc1cc(-c2nc3ncccc3o2)ccc1N,4.26%
26,CCc1nc2oc3ccc(C)cc3c(=O)c2cc1C(=O)OC,12.1%
27,c1ccc(-c2onc3cc4c(cc23)OCCO4)cc1,-6.45%
28,COc1ccc(C2NC(=S)NC3=C2N2CCC3CC2)cc1 (stereo not shown),2.77%

row,SMILES,"hERG current change (%, negative = inhibition) at 10uM"
1,CCC(NC(=O)c1ccccc1NC(=O)c1ccco1)C(=O)NNC(=O)c1ccncc1 (stereo not shown),8.86%
2,Cc1ccc(S(=O)(=O)N(C)C)cc1NC(=O)c1n[nH]c(=O)c2ccccc12,12%
3,COc1ccccc1Cn1c(=S)[nH]c2cc(C(=O)NCC(OC)OC)ccc2c1=O,16.1%
4,O=C(c1ccc2nsnc2c1)N1CCN(c2ccc([N+](=O)[O-])cc2)CC1,-75.5%
5,NS(=O)(=O)c1ccc(N=Nc2ccc(O)c3ncccc23)cc1,19.3%
6,CCCC(=O)Nc1ccc2c(c1)nc1n2CCOC1,6.13%
7,C=C(Cl)COc1ccc2c(CCC)cc(=O)oc2c1,-45.7%
8,O=C1CC(C(=O)N2CCc3ccccc32)CN1c1cccc(C(F)(F)F)c1 (stereo not shown),3.75%
9,COC(=O)C(NC(=O)c1ccco1)(Nc1cc(C)ccn1)C(F)(F)F (stereo not shown),5.63%
10,O=C(NC1CCCN(CCc2ccccc2)C1)C1CCCC1 (stereo not shown),-36.7%
11,COc1cccc(C(=O)Nc2ccccc2-c2ccccc2)c1,-34.4%
12,CC(=O)Nc1ccc(S(=O)(=O)Nc2cccc(C(=O)Nc3ccccc3C(=O)O)c2)cc1,-16.5%
13,CCOc1ccc(NC(=O)CN(C)C(=O)c2cc(S(=O)(=O)N3CCCCCC3)ccc2OC)cc1OCC,-9.8%
14,Cc1ccc2c(c1)C1CN(C)CCC1N2C(=S)NC(=O)c1ccc(Cl)cc1Cl (stereo not shown),-71%
15,CCC1(C)CC(CCNS(=O)(=O)c2ccc(C)cc2)(c2ccc(C)cc2)CCO1 (stereo not shown),12.6%
16,CCOc1ccc(NC(=O)CSC2=NCCN2)cc1.Cl,-2.9%
17,CCCC(C(=O)Nc1ccc2c(C)cc(=O)oc2c1)c1ccccc1 (stereo not shown),14.1%
18,Cc1ccc(C(C)NC(=O)C2CCCC2)c(C)c1 (stereo not shown),-13.4%
19,O=C(Nc1ccc(N2CCOCC2)c(Cl)c1)c1cc2ccccc2o1,-36.1%
20,Cc1noc(C)c1S(=O)(=O)N(CC(=O)NC1CCC(C)CC1)c1ccc(C(C)C)cc1 (stereo not shown),21.1%
21,O=C(O)c1cccc(S(=O)(=O)N(Cc2ccccc2)c2ccccc2)c1,20.1%
22,CCC/C=N/NC(=O)c1cc(-c2ccccc2)nc2ccccc12,8.94%
23,CC(=O)Nc1ccc(S(=O)(=O)NC(C)CCc2ccccc2)cc1 (stereo not shown),2.82%
24,COc1ccc(C(C)=O)cc1CSc1nc2ccccc2c(=O)n1-c1ccccc1,-2.17%
25,COc1ccc(C(=O)CN2C(=O)c3ccccc3S2(=O)=O)cc1Br,14.4%
26,CCCCC1=CC2=C(c3ccco3)C(=O)C(C)(OC(=O)c3ccc(OC)cc3)C(=O)C2=CN1CCc1ccccn1 (stereo not shown),0.988%
27,O=C(Nc1ccccc1Br)c1ccccc1-c1ccccc1,-1.81%
